Assay results: PubChem BioAssay AID493208 (National Center for Advancing Translational Sciences (NCATS), 2011)
Among all 44,000 compounds or so, about 340 (0.77%) were called active. Roughly 5% stayed inconclusive and do not appear here. Calls come from the whole dose curve; as a rule, active = well fitted inhibition curve with a large enough effect; inconclusive = small, poorly fitted or top-dose-only effect; inactive = flat fitted curve, though single readings scatter. The list shows a part of the results.

Experiment: Acumen qHTS Assay for Inhibitors of the mTORC1 Signaling Pathway in MEF (Tsc2-/-, p53-/-) Cells: Sytravon;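 note: plate controls were DMSO for no effect and rapamycin for full effect; nearly all actives have a fitted effect of over 50% in size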
Conditions: phospho-rpS6 immunofluorescence/PI, 24 h; series mostly up to 38.3 µM; activity change, negative = inhibition: at the top concentration
In short: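 Compounds act on Tsc2-/-, p53-/- fibroblasts carrying an empty vector for 24 h before fixation and dual staining for phospho-S6 and DNA (propidium iodide). Values are percentages of cells above a rapamycin-defined pS6/PI threshold.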

Activity change, negative = inhibition, inactive:
O=C(Nc1ccc(C(=O)N2CCN(c3ccc(F)cc3)CC2)cc1)c1nsc2ccccc12 16.6%
CCN1CCN(CCCNC(=O)c2ccc3nc(Cc4ccc(OC)cc4)oc3c2)CC1 -0.308%
Cc1cc(C)n(C(C)CC(=O)NCc2ccccc2C)n1 (configuration not stated) -4.7%
CC(=O)Nc1ccc(S(=O)(=O)N2CCC(c3ccncc3)CC2)cc1 -5.32%
COc1ccc(Br)cc1C(=O)Nc1ccc2oc(-c3cccnc3)nc2c1 -3.16%
CCCCN(CCCC)c1ncnc2c1cnn2-c1cccc(C)c1 0.715%
COc1ccccc1CNC(=O)Cc1c(C)c2c(cc(C)c3c(C)c(C)oc32)oc1=O 1.11%
COc1ccc(OCc2ccc(-c3nc(C#N)c(N4CCN(C)CC4)o3)o2)cc1 -4.59%
COc1ccc(CCNC(=O)CCCn2c(=O)c3cccn3c3cccnc32)cc1OC 0.712%
Cc1ccc2c(CN3CCN(Cc4ccccc4Cl)CC3)cc(=O)oc2c1 -10.7%
COc1ccc(C2CC(=O)Nc3c2c(=O)nc2c(C)cccn32)cc1OC (configuration not stated) -3.25%
CCOC(=O)c1c(NC(=O)COc2cccc(C(F)(F)F)c2)sc2c1CCC(C)C2 (configuration not stated) -7.28%
CCN(CC)c1nn2c(=O)c(C(=O)NCCc3ccc(C)cc3)cnc2s1 3.46%
COc1ccc(NC(=O)c2ccc(CN3C(=O)CCn4nc(C)cc43)cc2)c(OC)c1 3.98%
CCn1c2ccccc2c2nnc(N3CCN(c4ccc(F)cc4)CC3)nc21 3.17%
Cc1nc2sc(C(=O)N(C)Cc3ccccc3)c(NC(=O)c3ccccc3)c2c(C)c1Cl -3.48%
CCOC(=O)c1cc2c(=O)n3ccccc3nc2n(CC2CCCO2)c1=NC(=O)c1ccc(C(C)(C)C)cc1 (configuration not stated) 6.69%
CCOc1ccc(CNC(=O)c2ccc(Sc3ccc(Cl)cc3)c(NC(C)=O)c2)cc1 -14.6%
COc1ccc(NC(=O)CSc2cn(CC(=O)N3CCCCC3)c3ccccc23)c(OC)c1 0.726%
CCCC(=O)Nc1ccc2c(c1)nc(CN1CCN(C(=O)OCC)CC1)n2C(C)C -17.7%
Cc1cc(C)cc(Nc2ncnc3c2nc2n3CCCC2)c1 7.24%
COc1ccc(N2CC(NC(=O)COc3ccccc3F)CC2=O)cc1OC (configuration not stated) 0.936%
COc1ccc(C)c2sc(NC(=O)c3ccc(S(=O)(=O)N4CCCCC4)cc3)nc12 9.73%
CC(C)CCNC(=O)CN1C(=O)CCn2nc(-c3cn(C)c4ccccc34)cc21 4.31%
CCCOc1ccc(NC(=O)CC2C(=O)N(c3ccc(C)cc3)C(=O)N2C(C)C)cc1 (configuration not stated) -3.47%
CCCOc1ccc(/C=C/C(=O)Nc2sc(C)c(C)c2C(=O)OCC)cc1OC 8.85%
CCOc1ccc(S(=O)(=O)NCCc2csc(-c3ccc(Cl)cc3)n2)cc1 0.0742%
